Measured values published in US6344564B1, “Fungicidal 2-imidazolin-5-ones and 2-imidazoline-5-thiones” (priority 1992, dated 2002).

Legend:
[1] = test system: Puccinia recondita; experiment: In vivo comparative test on Puccinia recondita (brown rust of wheat), IC75 of enantiomers and racemic modifications; settings: concentration at which 75% inhibition of the disease is observed; wheat (Talent) sprayed 24 hours before infection with Puccinia recondita spores; monitored between 8th and 15th day after infection vs untreated control
Procedure: An aqueous pension of the active material to be tested is prepared, by fine milling, having the following composition:
Tween 80 surface-active agent (oleate of polycondensate of ethylene oxide with sorbitan) diluted to 10% in water: 0.3 ml
(§1) volume made up to 60 ml with water.
The active material to be tested is either one of the two enantiomers of formula (I′″) according to the invention or the corresponding racemic modification.
(§2) This aqueous suspension is then diluted with water to produce the desired concentration of active material.
Wheat of the Talent variety, in pots, sown on a 50/50 peat/pozzolana earth substrate, is treated at the 10 cm high stage by spraying the above aqueous suspension.
(§3) After 24 hours, an aqueous suspension of spores (100,000 sp/cm^3) of Puccinia recondita is sprayed on the wheat; this suspension was obtained from infected seedlings. The wheat is then placed for 24 hours in an incubation cell at approximately 20° C. and at 100% relative humidity, and then for 7 to 14 days at 60% relative humidity.
Monitoring of the condition of the seedings is carried out between the 8th an 15th day after infection, by comparison with an untreated control.

[2] = test system: Puccinia recondita; experiment: In vivo test on Puccinia recondita (brown rust of wheat); settings: dose of 1 g/l, wheat sprayed 24 hours before infection, monitoring between 8th and 15th day after infection, read-out: protection
Procedure: An aqueous suspension of the active material to be tested is prepared, by fine milling, having the following composition:
Tween 80 surface-active agent (oleate of polyoxyethylenated derivative of sorbitan) diluted to 10% in water: 0.3 ml
as §1, §2
Wheat, in pots, sown on a 50/50 peat/pozzolana earth substrate, is treated at the 10 cm high stage by spraying the above aqueous suspension.
as §3, with “plants.” for “seedlings.”
Monitoring of the condition of the plants is carried out between the 8th and 15th day after infection, by comparison with an untreated control.

SMILES	IC75 (ppm) [1]	pest or weed control at 1000 µg/mL [2] [%]
CSC1=NC(C)(c2ccccc2)C(=O)N1Nc1ccccc1 (centres unmarked) [Compound 502]	>1000 ppm	
CSC1=NC(C)(c2ccc(F)cc2)C(=O)N1Nc1ccccc1 (racemic) [511 + 512]	37-110 ppm	
CSC1=NC(C)(c2ccccc2)C(=O)N1Nc1ccccc1 (racemic) [501 + 502]	330 ppm	
CC1=NC(C)(c2ccccc2)C(=O)N1Nc1ccccc1 (centres unmarked) [Compound 201, 2,4-dimethyl-4-phenyl-1-phenylamino-2-imidazolin-5-one]		≥ 75
COC1=N[C@@](C)(c2ccccc2)C(=O)N1Nc1ccccc1 [Compound 503, (+)-(4S)-4-methyl-2-methoxy-4-phenyl-1-phenylamino-2-imidazolin-5-one]	110 ppm	
CSC1=NC(C)(c2ccc(F)cc2)C(=O)N1Nc1ccccc1 (centres unmarked) [Compound 68, 4-Methyl-2-methylthio-4-(4-fluorophenyl)-1-phenylamino-2-imidazolin-5-one]		≥ 75
CSC1=N[C@@](C)(c2ccc(F)cc2)C(=O)N1Nc1ccccc1 [Compound 511]	12-37 ppm	
CSC1=NC2(CCc3ccccc32)C(=O)N1Nc1ccccc1 (centres unmarked) [Compound 98]		≥ 75
COC1=NC(C)(c2ccccc2)C(=O)N1Nc1ccccc1 (centres unmarked) [Compound 504]	>1000 ppm	
CSC1=NC(C)(c2ccccc2)C(=O)N1N(C)c1ccccc1 (centres unmarked) [Compound 22, 4-methyl-1-(N-methyl-N-phenylamino)-2-methylthio-4-phenyl-2-imidazolin-5-one]		≥ 75
CSC1=NC(C)(c2ccc(F)cc2)C(=O)N1Nc1cccc(F)c1 (racemic) [513 + 514]	37 ppm	
COC1=NC(C)(c2ccccc2)C(=O)N1Nc1ccccc1 (racemic) [503 + 504]	330 ppm	
CC1=NC2(CCc3ccccc32)C(=O)N1Nc1ccccc1 (centres unmarked) [Compound 228]		≥ 75
COC1=NC(C)(c2ccc(Br)cc2)C(=O)N1Nc1ccccc1 (centres unmarked) [Compound 505]	110-330 ppm	
COC1=NC(C)(c2ccc(F)cc2)C(=O)N1Nc1ccccc1 (racemic) [525 + 526]	12 ppm	
COC1=NC(C)(c2ccc(F)cc2)C(=O)N1Nc1cccc(F)c1 (racemic) [527 + 528]	37 ppm	
COC1=NC(C)(c2ccc(F)cc2)C(=O)N1Nc1ccccc1 (single isomer, unassigned) [Compound 526]	>1000 ppm	
CSC1=NC(C)(c2ccccc2)C(=O)N1Nc1ccccc1 (centres unmarked) [Compound 9, 4-methyl-2-methylthio-4-phenyl-1-phenylamino-2-imidazolin-5-one]		≥ 75
CSC1=N[C@@](C)(c2ccccc2)C(=O)N1Nc1ccccc1 [Compound 501, (+)-(4S)-4-methyl-2-methylthio-4-phenyl-1-phenylamino-2-imidazolin-5-one]	37 ppm	
CSC1=N[C@@](C)(c2ccc(F)cc2)C(=O)N1Nc1cccc(F)c1 [Compound 513]	12 ppm	
COC1=NC(C)(c2ccc(F)cc2)C(=O)N1Nc1cccc(F)c1 (single isomer, unassigned) [Compound 527]	4 ppm	
COC1=NC(C)(c2ccc(Br)cc2)C(=O)N1Nc1ccccc1 (centres unmarked) [Compound 506]	>1000 ppm	
COC1=NC(C)(c2ccc(Br)cc2)C(=O)N1Nc1ccccc1 (racemic) [505 + 506]	330 ppm	
